Laboratory results published in PubChem BioAssay AID602340 (Broad Institute, 2012).
Screen size: about 330,000 compounds; about 2,600 (0.79%) were called active. The shares of active, inactive and inconclusive entries below differ from those in the screen.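 How the source made its calls: active means mean ATP rescue above about 67%, or every replicate alone reaching that limit (limit read from the data, passing the limit was not always enough); inconclusive means no clear call, values can overlap the other calls; inactive means mean under the limit and some replicate under it.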

Test: suppressors of statin myotoxicity in C2C12 myotubes, primary screen, cell-based, single point, plate reader (AID 602340);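 further: myotubes were challenged with 10 µM simvastatin during compound exposure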
Settings: C2C12 myotubes + simvastatin, ATP luminescence, 48 h; at 7.49 µM; stronger effect = higher value; scaled: DMSO 0, geranylgeraniol control 100

Structure (SMILES)	rescue of ATP level
C[C@@H]1CN([C@H](C)CO)C(=O)c2cc(NC(=O)Cc3cn(C)c4ccccc34)ccc2O[C@@H]1CN(C)C(=O)Nc1ccc2c(c1)OCO2	inconclusive: 67.4%
Cc1ccsc1C(=O)N/N=C/C=C/c1ccccc1[N+](=O)[O-]	inconclusive: 68.4%
C[C@@H]1CN([C@@H](C)CO)C(=O)c2cc(NS(=O)(=O)c3ccc(Cl)cc3)ccc2O[C@H]1CN(C)C(=O)Nc1cccc2ccccc12	inconclusive: 87.2%
CCOC(=O)c1sc(NC(=O)CSc2n[nH]c(-c3ccncc3)n2)c(C#N)c1C	inconclusive: 81.2%
COc1ccc(-n2c(=S)[nH]c3cc(C(=O)N4CCN(c5ccccc5)CC4)ccc3c2=O)c(OC)c1	inconclusive: 87.7%
C[C@H]1CN([C@@H](C)CO)C(=O)Cc2cc(NS(=O)(=O)c3ccc(F)cc3)ccc2O[C@H]1CN(C)Cc1ccccc1	inconclusive: 67.7%
COc1ccc(-c2nc(NC(=O)c3nc4nccc(C)n4n3)sc2C)cc1	inconclusive: 12%
CNC[C@@H]1Oc2ccc(NC(=O)Nc3ccc(C(F)(F)F)cc3)cc2CC(=O)N([C@@H](C)CO)C[C@@H]1C	inconclusive: 74.3%
Cc1ccccc1S(=O)(=O)N(C)C[C@H]1OCc2ccccc2-c2c(n(C)c3ccccc23)C(=O)N([C@@H](C)CO)C[C@H]1C	inactive: 19.8%
CC(C)(C)c1nnc(NC(=O)C2c3ccccc3Oc3ccccc32)s1	inconclusive: 7.97%
Cc1ccc(CN(Cc2cc3cc4c(cc3[nH]c2=O)OCCO4)Cc2nnnn2Cc2ccco2)cc1	inconclusive: 68.5%
COc1ccc(S(=O)(=O)N2CCN(c3nc(-c4cccnc4)nc4ccccc34)CC2)cc1	inactive: -14.8%
CNc1ccc(Br)cc(C(=O)/C=C/c2cc(OC)ccc2OC)c1=O	inactive: 26.5%
Oc1ccc(-c2csc(Nc3ccc4c(c3)OCO4)n2)c(O)c1	active: 132%
CCOC(=O)CC(=O)CSc1nc2c(cc1C#N)CCCCCC2	inactive: 5.99%
O=C(C[C@H]1CC[C@@H]2[C@H](COC[C@H](O)CN2Cc2ccc(Oc3ccccc3)cc2)O1)N1CCN(c2ccccc2)CC1	inconclusive: 83.2%
C[C@H]1CN([C@@H](C)CO)C(=O)c2cc(NC(=O)c3ccncc3)ccc2O[C@H]1CN(C)Cc1ccc(Oc2ccccc2)cc1	inconclusive: 69.5%
C[C@@H]1CN([C@H](C)CO)S(=O)(=O)c2ccc(/C=C/c3ccccc3)cc2O[C@@H]1CN(C)C(=O)NC1CCCC1	inconclusive: 114%
CCCOc1cc(C)c(Cl)cc1S(=O)(=O)N(CC)CC	active: 108%
C[C@H](CO)N1C[C@H](C)[C@@H](CN(C)Cc2ccc(-c3ccccc3)cc2)Oc2ccc(NC(=O)Nc3ccc4c(c3)OCO4)cc2CC1=O	inconclusive: 76.8%
CC(NC(=O)C(=O)NCCN1CCN(C(=O)c2ccccc2Br)CC1)c1ccccc1 (stereo not given)	inconclusive: 84.2%
Cc1cc2c(=O)n(Cc3ccco3)c(SCC(=O)N3CCCc4ccccc43)nc2s1	inconclusive: 65.4%
Cc1ccc(NC2c3ncccc3C(=O)N2C2CCCCC2)cc1C (stereo not given)	inactive: -10.7%

Structure (SMILES)	rescue of ATP level
COCCn1nnnc1CN(CCc1ccc(OC)c(OC)c1)Cc1cc2ccc(C)cc2[nH]c1=O	active: 103%
CCCCCCn1c(N2CCC(C(N)=O)CC2)nc2c1c(=O)n(C)c(=O)n2C	inconclusive: 73.4%
CN1c2ccc(Br)cc2[C@H]2[C@H](CCN2C(=O)C2CC2)[C@H]1CO	inconclusive: 76.9%
O=C(OCC1OC(n2cc(Br)c(=O)[nH]c2=O)C(Br)C1O)c1ccccc1 (stereo not given)	inconclusive: 17.5%
CN1C(=O)c2cc(NC(=O)c3cccc(F)c3)ccc2OC[C@@H]2O[C@@H](CC(=O)NCc3ccccc3)CC[C@H]21	inactive: -10%
COc1ccc(COC(=O)Nc2cc3c(C(F)(F)F)nn(C)c3s2)cc1	inconclusive: 69.6%
Cc1noc(C)c1S(=O)(=O)Nc1ccc2c(c1)C(=O)N([C@H](C)CO)C[C@H](C)[C@@H](CN(C)Cc1ccc(Cl)c(Cl)c1)OCCCC[C@@H](C)O2	inactive: -29.2%
C[C@@H]1CCCCO[C@@H](CN(C)Cc2ccccc2)[C@@H](C)CN([C@H](C)CO)C(=O)c2cc(NC(=O)Nc3ccc4c(c3)OCO4)ccc2O1	inconclusive: 70.8%
COc1cc(-c2nc3ccc4ccccc4c3c3c2CCC3)cc(OC)c1OC	active: 93.6%
CCN1C(=O)CCN(C2CCCC2)c2nc(Nc3ccc(C(=O)NC4CCN(C)CC4)cc3OC)ncc21	inactive: -9.16%
C[C@@H]1CN([C@@H](C)CO)C(=O)c2cccc(NS(=O)(=O)c3cccs3)c2O[C@@H]1CN(C)S(=O)(=O)c1ccccc1	inconclusive: 93.4%
O=C(C[C@H]1CC[C@H](NC(=O)c2ccncc2)[C@H](CO)O1)NCC1CCCCC1	inactive: 6.6%
CCOC(=O)C1(C)NC(c2ccc(N(C)C)cc2)C2C(=O)N(c3ccc(OC)cc3)C(=O)C21 (stereo not given)	active: 115%
Cc1ccc(S(=O)(=O)CCC(=O)Nc2cccc(Cl)c2)cc1	active: 108%
COC(=O)C[C@@H]1CC[C@@H]2[C@H](COc3ccc(NC(=O)NCc4ccccc4)cc3C(=O)N2C)O1	inactive: -9.52%
COc1cccc(C(=O)CC(=O)C(=O)Nc2cccc([N+](=O)[O-])c2C)c1	inconclusive: 5.77%
C[C@H]1CN([C@@H](C)CO)C(=O)Cc2cc(NC(=O)Nc3ccc(C(F)(F)F)cc3)ccc2O[C@H]1CN(C)Cc1ccc(Oc2ccccc2)cc1	inconclusive: 73.3%
Cc1ccc(N(CC(=O)NCCc2ccc(Cl)cc2)S(=O)(=O)c2c(C)noc2C)cc1	inactive: 4.37%
COCCCN1C(=O)C(=O)/C(=C(/O)c2ccc(OC)cc2)C1c1cccc(OC)c1 (stereo not given)	active: 125%
CC(NC1CCCC1)C(=O)Nc1ccccc1-c1ccccc1 (stereo not given)	inconclusive: 66.3%
COc1ccc(OCc2nc(C#N)c(N3CCN(c4ccc(OC)cc4)CC3)o2)cc1	inconclusive: 77.2%
O=c1c(Cc2ccc(Cl)cc2Cl)c(O)ccn1CC(F)(F)F	inconclusive: 7.19%
